# Source: PubChem BioAssay AID1347165 (National Center for Advancing Translational Sciences (NCATS), 2019)
# About 5,700 (2.6%) of roughly 220,000 compounds were called active. The shares of active, inactive and inconclusive entries below differ from those in the screen. Calls come from the whole dose curve; as a rule, active = well fitted inhibition curve with a large enough effect; inconclusive = small, poorly fitted or top-dose-only effect; inactive = no such curve, though single readings can be large or run the other way. A potency beside an inconclusive call is a rough fit, not a confirmed value.
# Biological target: Lysine-specific demethylase 5B (Homo sapiens) (UniProt Q9UGL1)
# Test: Primary screen for KDM5B Histone Demethylases FDH-coupled qHTS; note: nearly all actives have a fitted effect of over 70% in size
# Settings: FDH-coupled NADH fluorescence (FDH is formaldehyde dehydrogenase); series mostly up to 57.7 µM
# Outline: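 KDM5BΔAP (200 nM final) in 50 mM HEPES pH 7.5, 0.01% Tween-20 was preincubated 10 min at RT with compound over a concentration range. Substrate mix (H3K4me3 12.5 µM, α-KG 25 µM, Fe²⁺, ascorbate, NAD⁺, FDH) was added, and NADH fluorescence change over 30 min gave dose-response curves.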
# Potency is the fitted concentration of half-maximal effect; tags give direction and shape of the fitted curve.
# Sequence of UniProt Q9UGL1 (Q9UGL1 whole entry, looked up): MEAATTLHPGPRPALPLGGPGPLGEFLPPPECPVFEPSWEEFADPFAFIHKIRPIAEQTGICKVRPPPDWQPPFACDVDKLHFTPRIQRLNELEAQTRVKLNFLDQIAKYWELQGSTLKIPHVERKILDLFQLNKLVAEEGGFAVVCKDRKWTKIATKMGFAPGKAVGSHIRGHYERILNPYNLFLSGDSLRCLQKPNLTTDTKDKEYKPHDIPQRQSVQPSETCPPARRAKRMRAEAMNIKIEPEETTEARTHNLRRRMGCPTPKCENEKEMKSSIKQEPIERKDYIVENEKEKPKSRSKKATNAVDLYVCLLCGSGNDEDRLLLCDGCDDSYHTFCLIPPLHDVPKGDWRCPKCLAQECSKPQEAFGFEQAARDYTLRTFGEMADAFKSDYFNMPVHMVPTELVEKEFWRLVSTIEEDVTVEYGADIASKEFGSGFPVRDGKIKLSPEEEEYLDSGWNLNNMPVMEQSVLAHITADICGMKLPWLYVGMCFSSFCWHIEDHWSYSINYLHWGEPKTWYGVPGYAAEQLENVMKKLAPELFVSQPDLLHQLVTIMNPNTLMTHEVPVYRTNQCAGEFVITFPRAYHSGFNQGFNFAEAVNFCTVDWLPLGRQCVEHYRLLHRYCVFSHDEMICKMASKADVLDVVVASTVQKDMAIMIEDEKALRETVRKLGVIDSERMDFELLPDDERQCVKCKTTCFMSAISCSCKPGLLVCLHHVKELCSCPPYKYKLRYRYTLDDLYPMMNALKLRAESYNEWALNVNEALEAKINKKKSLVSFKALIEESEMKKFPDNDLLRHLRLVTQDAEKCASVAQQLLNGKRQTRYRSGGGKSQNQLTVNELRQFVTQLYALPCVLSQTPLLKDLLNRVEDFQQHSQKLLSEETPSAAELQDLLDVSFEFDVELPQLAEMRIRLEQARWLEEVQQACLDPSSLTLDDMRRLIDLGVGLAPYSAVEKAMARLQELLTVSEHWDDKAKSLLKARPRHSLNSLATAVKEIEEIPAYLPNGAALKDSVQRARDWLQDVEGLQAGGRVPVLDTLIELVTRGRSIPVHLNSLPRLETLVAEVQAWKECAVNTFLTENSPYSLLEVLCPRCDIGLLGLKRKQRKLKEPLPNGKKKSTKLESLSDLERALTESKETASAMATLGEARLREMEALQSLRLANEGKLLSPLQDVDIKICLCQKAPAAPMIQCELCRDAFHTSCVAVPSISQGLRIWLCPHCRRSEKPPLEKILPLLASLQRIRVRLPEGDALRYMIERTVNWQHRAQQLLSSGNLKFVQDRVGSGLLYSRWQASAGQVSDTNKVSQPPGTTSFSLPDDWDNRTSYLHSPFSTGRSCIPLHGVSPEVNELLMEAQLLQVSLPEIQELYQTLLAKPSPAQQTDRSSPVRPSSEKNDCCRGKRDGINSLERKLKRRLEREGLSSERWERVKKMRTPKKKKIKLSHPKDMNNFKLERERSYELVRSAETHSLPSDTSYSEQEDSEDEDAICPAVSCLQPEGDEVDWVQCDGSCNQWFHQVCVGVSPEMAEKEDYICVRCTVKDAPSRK
row,Structure (SMILES),Potency
1,COc1ccc(-c2cn3c(n2)sc2cc(C(=O)NCc4cccs4)ccc23)cc1,"inconclusive: 31.6 µM [inhibitor, partial curve, poor fit]"
2,CCCCn1c(=O)n(CC(=O)Nc2cccc(F)c2)c(=O)c2c1ncn2Cc1ccco1,inactive
3,Cc1nn2c(c1-c1ccccc1C(C)C)N(Cc1ccc(F)cc1)CCC2,"inconclusive: 28.2 µM [inhibitor, partial curve, poor fit]"
4,O=C(Nc1ccc(F)cc1)N1CCN(c2ccc3nnc(-c4ccc(F)cc4)n3n2)CC1,"inconclusive: 44.7 µM [inhibitor, single point]"
5,C[C@H](NC(=O)[C@H](Cc1ccccc1)NC(=O)c1cc2cc(Cl)ccc2n1C)C(=O)O,inactive
6,CC(C)C(=O)N1CCC2(CC1)CC(N1CCCC1)CCO2 (configuration not stated),"inconclusive: 17.8 µM [inhibitor, partial curve, poor fit]"
7,CN1c2cc(C(=O)Nc3cc(F)cc(F)c3)ccc2C(=O)N2CCCCCC21 (configuration not stated),"inconclusive: 28.2 µM [inhibitor, partial curve, poor fit]"
8,COc1ccc(CN(C)Cc2ccncc2C)c(OCC(O)CN2CCCC2)c1 (configuration not stated),"inconclusive: 12.6 µM [inhibitor, partial curve]"
9,COCCNC(=O)N[C@@H]1CN(c2ncccn2)C[C@H]1CN(C)C,active: 22.4 µM
10,CC(C)(C)c1ccc(CSc2nc3c(c(=O)[nH]2)CCCC3)cc1,"inconclusive: 1.41 µM [inhibitor, partial curve, poor fit]"
11,COCCNC(=O)C(C)[C@@H]1CC[C@@]2(C)CC[C@H](N[S+](C)(=O)[O-])[C@@H](C)[C@@H]2[C@H]1O (some centres not stated),"inconclusive: 35.5 µM [inhibitor, single point]"
12,O=c1c(N2CCN(c3cccc(C(F)(F)F)c3)CC2)csc2ccccc12,"inconclusive: 22.4 µM [inhibitor, partial curve, poor fit]"
13,NC(=O)c1nsc(C(=O)N(Cc2ccco2)C(C(=O)NCC2CCCO2)c2ccc(O)cc2)c1N (configuration not stated),"inconclusive: 20 µM [inhibitor, partial curve, poor fit]"
14,CC(C)c1noc(-c2cccn3c(CNC(=O)Cc4ccc(F)cc4)nnc23)n1,active: 14.1 µM
15,CCCCn1c(N)c(N(C)C(=O)C2=NN(c3cccc(C)c3)C(=O)CC2)c(=O)[nH]c1=O,inactive
16,Cc1oc(-c2cccs2)nc1C(=O)N1CCC(NC(=O)C2CC2)CC1,"inconclusive: 25.1 µM [inhibitor, partial curve, poor fit]"
17,COc1ccc(C(=O)Nc2oc3ccccc3c(=O)c2-c2ccc(Cl)cc2)cc1,"inconclusive: 39.8 µM [inhibitor, single point]"
18,Cc1cccc(C)c1-c1nc(C(=O)NCc2ccc(F)cc2)n2ccccc12,active: 28.2 µM
19,CC(C)(C)c1ccccc1NC(=O)c1ccc2c(c1)CCC2,inactive
20,CC1(COc2cccnc2)COc2ccc(C(=O)Nc3cccc(Cl)c3)cc2N1 (configuration not stated),active: 14.1 µM
21,CCc1c(C)sc2nc(NCCO)n3nc(-c4ccco4)nc3c12,"inconclusive: 25.1 µM [inhibitor, partial curve, poor fit]"

row,Structure (SMILES),Potency
1,Cc1ccc(-c2ncc(NC(=O)c3cccs3)cn2)cc1,active: 31.6 µM
2,CCN1CCN(c2csc3ccc(F)cc3c2=O)CC1,"inconclusive: 22.4 µM [inhibitor, partial curve, poor fit]"
3,Clc1ccc(COc2ccc(CNCC3CCNCC3)cc2)cc1,inactive
4,CC1CC(C)(C)Nc2c(O)cccc21 (configuration not stated),"inconclusive: 8.91 µM [inhibitor, full curve, poor fit]"
5,CN(CCCNC(=O)c1nc2ccccc2c(=O)[nH]1)C(=O)c1ccccc1,inactive
6,Cc1ccc(C(=O)N2CCN(C3CCN(C)C3=O)CC2)cc1C (configuration not stated),inactive
7,COCCNC(=O)c1cc(C2CC2)nc2onc(C3CCCNC3)c12 (configuration not stated),"inconclusive: 79.4 µM [inhibitor, partial curve]"
8,CC(C)C(=O)NNC(=O)c1csc(-c2cccs2)n1,"inconclusive: 25.1 µM [inhibitor, partial curve, poor fit]"
9,CC(C)C(=O)N1Cc2ccccc2CC2(CCCN2Cc2ccccn2)C1 (configuration not stated),"inconclusive: 56.2 µM [inhibitor, partial curve, poor fit]"
10,COc1cccc(-c2ncc3c(n2)OCCN(CC2CC2)C3=O)c1OC,inactive
11,CCOC(=O)c1ccccc1NC(=O)Cn1c(=O)n(CCC(=O)NCc2ccccc2OC)c(=O)c2ccccc21,"inconclusive: 1.41 µM [inhibitor, partial curve, poor fit]"
12,O=C(O)C(c1c[nH]c2ccc(Cl)cc12)N1CCN(Cc2ccccc2)CC1 (configuration not stated),inactive
13,CCN1c2cc(C(=O)Nc3ccc(Cl)c(Cl)c3)ccc2C(=O)N2CCCCC21 (configuration not stated),"inconclusive: 35.5 µM [inhibitor, partial curve, poor fit]"
14,Cc1noc(C)c1S(=O)(=O)NCc1cccnc1N(C)Cc1ccccc1,"inconclusive: 20 µM [inhibitor, single point]"
15,O=C(c1ccc2nc[nH]c2c1)N1CCN(c2cc(-c3cccs3)[nH]n2)CC1,"inconclusive: 31.6 µM [inhibitor, partial curve, poor fit]"
16,COCCNC(=O)c1ccc2c(c1)N(C)C(CC(=O)NCc1ccccn1)CO2 (configuration not stated),active: 28.2 µM
17,O=C(Cn1ccn2nc3c(c2c1=O)CCCC3)Nc1ccc(C(F)(F)F)cc1,"inconclusive: 39.8 µM [inhibitor, single point]"
18,Nc1c(F)cc(F)cc1-c1ccccc1,"inconclusive: 28.2 µM [inhibitor, single point]"
19,O=C(Cc1ccccc1)N(Cc1cccnc1)c1nc2ccc(Cl)cc2s1,"inconclusive: 25.1 µM [inhibitor, single point]"
20,CCN1CCN(c2oc(-c3cccs3)nc2C#N)CC1,"inconclusive: 1.78 µM [inhibitor, partial curve, poor fit]"
21,Cc1ccc(C)c(-c2csc(-c3ccc(O)cc3)n2)c1,"inconclusive: 28.2 µM [inhibitor, single point]"
